Test results taken from the supplement of paper PMC10126150.
Sequences with one replicate were seen in a single cluster, so their values are uncertain.

Tested on: ATP
Assay: switch fluorescence ratio, 500 uM ATP over buffer (Cy3 cluster intensity, sum of 5 cycles each) (fold (ratio)); higher = stronger signal-on switching upon ATP binding; sequences stand for … in TCGTCGGCAGCGTCAGATGTGTATAAGAGACAGTTTTTTTTTTTTTTTTTTTTTTTTT…TC
Conditions: aptamer strand: ATP DNA aptamer (quencher-CACCTGGGGGAGTATTGCGGAGGAAGG + anchor), 100 nM annealed; ATP concentration: 500 uM; one replicate
In short: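 For every switch-domain sequence, the fluorescence ratio is the mean of per-cluster values, each being summed target-cycle Cy3 intensity over summed buffer-cycle Cy3 intensity. Clusters outside 100-1000 RFU were excluded. On a modified Illumina MiSeq flow-cell, the Cy3-labelled switching-strand clusters were annealed to 100 nM quencher-labelled ATP aptamer, imaged in selection buffer and then after 15 min with 500 uM ATP at 22 °C. Five such cycles were run, with NaOH stripping and re-annealing between them.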
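Further: ATP exposure 15 min at 22 °C before imaging.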

Q: Which switch fluorescence ratio does the source give for GGGCATGAC here?
A: 1.03

Q: How did the switch fluorescence ratio turn out when GGGCCAATAC was run?
A: 3.03

Q: How did the switch fluorescence ratio turn out when GGGCCCAATC was run?
A: 0.988

Q: For GGGCCCCGAT, which switch fluorescence ratio is on record?
A: 0.98

Q: For GGGCCGGCAC, which switch fluorescence ratio is on record?
A: 0.984

Q: With GGGCCGTCAC as the sequence, how does the switch fluorescence ratio read?
A: 1.06

Q: How did the switch fluorescence ratio turn out when GGGCCGTTCA was run?
A: 1.05

Q: How did the switch fluorescence ratio turn out when GGGCCGTTTT was run?
A: 0.97

Q: For GGGCGAAGG, which switch fluorescence ratio is on record?
A: 1

Q: How did the switch fluorescence ratio turn out when GGGCGACTGA was run?
A: 1.02

Q: GGGCGCAAAG was tested. Which switch fluorescence ratio did it give?
A: 1.05

Q: How did the switch fluorescence ratio turn out when GGGCGCATTG was run?
A: 1.02

Q: Which switch fluorescence ratio does the source give for GGGCGCGTGG here?
A: 1

Q: GGGCGCTGTT was tested. Which switch fluorescence ratio did it give?
A: 0.962

Q: For GGGCGGGGTT, which switch fluorescence ratio is on record?
A: 1.02

Q: Which switch fluorescence ratio does the source give for GGGCGGGTTA here?
A: 1.04

Q: For GGGCGTCAA, which switch fluorescence ratio is on record?
A: 1.03

Q: How did the switch fluorescence ratio turn out when GGGCGTCGCG was run?
A: 0.991

Q: Which switch fluorescence ratio does the source give for GGGCTAGATA here?
A: 0.943

Q: For GGGCTAGTCC, which switch fluorescence ratio is on record?
A: 0.977

Q: Which switch fluorescence ratio does the source give for GGGCTATAGT here?
A: 1.02

Q: How did the switch fluorescence ratio turn out when GGGCTCGAGC was run?
A: 0.966

Q: How did the switch fluorescence ratio turn out when GGGCTCGTTC was run?
A: 0.972

Q: With GGGCTGATGG as the sequence, how does the switch fluorescence ratio read?
A: 1.02

Q: GGGCTGTTGG was tested. Which switch fluorescence ratio did it give?
A: 0.965

Q: With GGGCTTCCCA as the sequence, how does the switch fluorescence ratio read?
A: 1.02

Q: For GGGCTTTTAC, which switch fluorescence ratio is on record?
A: 1.11

Q: Which switch fluorescence ratio does the source give for GGGGAACGAG here?
A: 1

Q: GGGGAACGCT was tested. Which switch fluorescence ratio did it give?
A: 1.05

Q: How did the switch fluorescence ratio turn out when GGGGACCTGA was run?
A: 1.03

Q: GGGGACTTAA was tested. Which switch fluorescence ratio did it give?
A: 1.01

Q: GGGGAGAGC was tested. Which switch fluorescence ratio did it give?
A: 1

Q: For GGGGAGGAAC, which switch fluorescence ratio is on record?
A: 1.05

Q: GGGGAGTATG was tested. Which switch fluorescence ratio did it give?
A: 0.98

Q: GGGGAGTTAA was tested. Which switch fluorescence ratio did it give?
A: 0.937

Q: For GGGGATACAT, which switch fluorescence ratio is on record?
A: 0.994

Q: How did the switch fluorescence ratio turn out when GGGGATCGGT was run?
A: 0.979

Q: For GGGGATGACA, which switch fluorescence ratio is on record?
A: 0.938

Q: GGGGATGGCC was tested. Which switch fluorescence ratio did it give?
A: 0.986

Q: How did the switch fluorescence ratio turn out when GGGGCACTTG was run?
A: 0.997

Q: With GGGGCCAATG as the sequence, how does the switch fluorescence ratio read?
A: 1.01

Q: Which switch fluorescence ratio does the source give for GGGGCCTAGT here?
A: 0.999

Q: With GGGGCCTCCA as the sequence, how does the switch fluorescence ratio read?
A: 1.01

Q: How did the switch fluorescence ratio turn out when GGGGCCTCT was run?
A: 1.03

Q: Which switch fluorescence ratio does the source give for GGGGCCTGAC here?
A: 1.22

Q: With GGGGCGAAGA as the sequence, how does the switch fluorescence ratio read?
A: 0.983

Q: With GGGGCTATAG as the sequence, how does the switch fluorescence ratio read?
A: 1.02

Q: GGGGCTGAGC was tested. Which switch fluorescence ratio did it give?
A: 1.02

Q: How did the switch fluorescence ratio turn out when GGGGCTGTCC was run?
A: 0.991

Q: For GGGGGATCTG, which switch fluorescence ratio is on record?
A: 1.02

Q: For GGGGGCAAAC, which switch fluorescence ratio is on record?
A: 1.39

Q: How did the switch fluorescence ratio turn out when GGGGGCATGC was run?
A: 1.01

Q: With GGGGGCCGTG as the sequence, how does the switch fluorescence ratio read?
A: 0.869

Q: GGGGGCGCG was tested. Which switch fluorescence ratio did it give?
A: 1.02

Q: Which switch fluorescence ratio does the source give for GGGGGCTCGA here?
A: 1.02

Q: For GGGGGCTCTT, which switch fluorescence ratio is on record?
A: 0.985

Q: How did the switch fluorescence ratio turn out when GGGGGTACAG was run?
A: 1.04

Q: How did the switch fluorescence ratio turn out when GGGGGTATCT was run?
A: 1.01

Q: For GGGGGTCCGG, which switch fluorescence ratio is on record?
A: 0.957

Q: For GGGGGTCGCC, which switch fluorescence ratio is on record?
A: 0.971

Q: With GGGGTACCCG as the sequence, how does the switch fluorescence ratio read?
A: 1.04

Q: How did the switch fluorescence ratio turn out when GGGGTATTC was run?
A: 1.08

Q: Which switch fluorescence ratio does the source give for GGGGTCCCGA here?
A: 1

Q: For GGGGTCTACG, which switch fluorescence ratio is on record?
A: 1.01

Q: For GGGGTGAATT, which switch fluorescence ratio is on record?
A: 0.963

Q: GGGGTGACGC was tested. Which switch fluorescence ratio did it give?
A: 1.01

Q: Which switch fluorescence ratio does the source give for GGGGTGCAC here?
A: 1.04

Q: For GGGGTGGAGA, which switch fluorescence ratio is on record?
A: 1.04

Q: GGGGTGTTTC was tested. Which switch fluorescence ratio did it give?
A: 0.963

Q: With GGGGTTTAAA as the sequence, how does the switch fluorescence ratio read?
A: 0.984

Q: Which switch fluorescence ratio does the source give for GGGTAAGAAT here?
A: 1.02

Q: With GGGTAAGCCA as the sequence, how does the switch fluorescence ratio read?
A: 0.982

Q: GGGTAAGCGG was tested. Which switch fluorescence ratio did it give?
A: 1.02

Q: GGGTAATTCT was tested. Which switch fluorescence ratio did it give?
A: 0.995

Q: With GGGTACACAG as the sequence, how does the switch fluorescence ratio read?
A: 0.996

Q: With GGGTACCATG as the sequence, how does the switch fluorescence ratio read?
A: 1.02

Q: For GGGTACCTTT, which switch fluorescence ratio is on record?
A: 1.02

Q: How did the switch fluorescence ratio turn out when GGGTAGCTAC was run?
A: 0.998

Q: With GGGTATCTTT as the sequence, how does the switch fluorescence ratio read?
A: 1.01

Q: How did the switch fluorescence ratio turn out when GGGTCAAGTA was run?
A: 1.03

Q: Which switch fluorescence ratio does the source give for GGGTCATTCG here?
A: 1.01

Q: For GGGTCCATCC, which switch fluorescence ratio is on record?
A: 1.01

Q: GGGTCCCTAC was tested. Which switch fluorescence ratio did it give?
A: 1.26

Q: With GGGTCCGTTA as the sequence, how does the switch fluorescence ratio read?
A: 1

Q: GGGTCCTGGT was tested. Which switch fluorescence ratio did it give?
A: 0.942
